From PubChem BioAssay AID1963576 (National Center for Advancing Translational Sciences (NCATS), 2024)
Among all 46,000 compounds or so, about 60 (0.1%) were called active. Roughly 3% stayed inconclusive and do not appear here. The call rests on the fitted dose curve; in most records, active means well fitted inhibition curve with a large enough effect; inconclusive means small, poorly fitted or top-dose-only effect; inactive means no such curve, though single readings can be large or run the other way. This is one part of the list.

experiment: Primary qHTS assay for Inhibitors of ovarian cancer metastasis using an organotypic tumor microenvironment (TME) model.; further: nearly all actives have a fitted effect of over 65% in size;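 on activity change, negative = inhibition: plate controls were DMSO wells for no effect and tomatine positive control wells for full effect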; conditions: SKOV3ip1-GFP adhesion/invasion on 3D omental model, fluorescence; series mostly up to 45.8 µM; activity change, negative = inhibition: at the top concentration
Summary of the method: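 A 3D layer of primary human omental fibroblasts, mesothelial cells, fibronectin and collagen I, grown 48 hr, received SKOV3ip1-GFP cells in serum-free medium plus compounds at 0.36-46 umol/L. After 2 hr RT and 16 hr 37 C, fixed adherent GFP cells were counted; normalized to DMSO and tomatine.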

Activity change, negative = inhibition, inactive:
Nc1nc(Cl)nc2c1ncn2[C@@H]1O[C@H](CO)[C@@H](O)[C@H]1F -2.91%
COc1ccc(Nc2cc(C)nc3c(C)c(C)ccc23)cc1 5.39%
Cc1ccn2c(Nc3ccc4c(c3)OCCO4)c(-c3cccs3)nc2c1 -16.6%
Cc1ccc2c(c1)Cc1c(nc(-c3ccc(Cl)cc3)nc1SCC(=O)N1CCCCC1)O2 11.3%
Cc1ccc2onc(CNC(=O)Nc3cc(F)ccc3F)c2c1 -2.3%
Cc1ncc(-c2ccnc(Nc3ccc(S(C)(=O)=O)cc3)n2)n1C(C)C 6.8%
Cc1ccc(Cl)cc1NC(c1ccc(F)cc1)c1nnc(-c2ccccc2)o1 (stereo unspecified) 0.314%
Cc1ccc(C)c(S(=O)(=O)c2nnn3c2nc(N2CCN(C)CC2)c2sccc23)c1 -4.91%
COc1ccc(CC(=O)NCC(c2cccs2)S(=O)(=O)c2ccc(F)c(C)c2)cc1 (stereo unspecified) -3.63%
O=c1c2cc3c(cc2nc2sc(Nc4cccc([N+](=O)[O-])c4)nn12)OCO3 0.241%
CCCCN(C(=O)C1CCC(CNS(=O)(=O)c2cccc3nsnc23)CC1)c1ccccc1 (stereo unspecified) 0.347%
CC(=O)Nc1cc(C(=O)NCc2ccc(F)cc2)ccc1Sc1ccc(F)cc1 -6.73%
Cc1cc2oc(=O)c(CC(=O)NCCc3ccccc3F)c(C)c2c2occ(C(C)(C)C)c12 1.53%
COc1c(N2C[C@@H]3CCCN[C@H]3C2)c(F)cc2c(=O)c(C(=O)O)cn(C3CC3)c12 -9.1%
COc1ccccc1NC(=O)C1=C(C)Nc2nc(SC)nn2C1c1ccccc1Cl (stereo unspecified) -6.19%
Cc1cc2n(n1)CCC(=O)N2Cc1ccc(C(=O)Nc2cc(Cl)ccc2C)cc1 11.9%
COc1ccccc1C(=O)Nc1ccc2nc(SCC(=O)N3CCCc4ccccc43)sc2c1 -6.49%
COc1ccccc1C(=O)N/C(=C\c1cn(S(=O)(=O)N(C)C)c2ccccc12)C(=O)NCCCn1ccnc1 11.8%
Cc1cccc(CN2CCC(CNC(=O)Cn3ncc4c([nH]c5ccc(C)cc54)c3=O)CC2)c1 1.75%
CCOC(=O)c1cc(S(=O)(=O)NCc2ccc(Cl)cc2)[nH]n1 27.5%
COc1ccccc1C(=O)Nc1nc2n(n1)C(c1ccc(F)cc1)C=C(c1ccc(Cl)cc1)N2 (stereo unspecified) -3.51%

outcome, inactive:
Cc1ccc(NC(=O)C(CC(C)C)NS(=O)(=O)c2ccc3c(c2)oc(=O)n3C)c(C)c1 (stereo unspecified)
CC(=O)Nc1ccc(NC(=O)CN(C)S(=O)(=O)c2ccc3c(c2)CCCC(=O)N3)cc1
CCOC(=O)c1c(NC(=O)c2ccc(OCC)c(Br)c2)sc2c1CCCC2
COc1ccc(OC)c(NC(=O)C2CCCN(S(=O)(=O)c3ccc4c(c3)CCCC(=O)N4)C2)c1 (stereo unspecified)
Cc1ccccc1CSc1ncc(Cl)c(C(=O)Nc2nc3ccc(F)cc3s2)n1
